The list shows a part of the results. Values were computed here from the reads of four pooled replicates and scatter widely.
The sequences below were run against T1, Pho4 (S. cerevisiae) (UniProt P07270) (assay: relative binding free energy (BET-seq); higher = weaker binding). Conditions: reference: library average.
T1 sequence: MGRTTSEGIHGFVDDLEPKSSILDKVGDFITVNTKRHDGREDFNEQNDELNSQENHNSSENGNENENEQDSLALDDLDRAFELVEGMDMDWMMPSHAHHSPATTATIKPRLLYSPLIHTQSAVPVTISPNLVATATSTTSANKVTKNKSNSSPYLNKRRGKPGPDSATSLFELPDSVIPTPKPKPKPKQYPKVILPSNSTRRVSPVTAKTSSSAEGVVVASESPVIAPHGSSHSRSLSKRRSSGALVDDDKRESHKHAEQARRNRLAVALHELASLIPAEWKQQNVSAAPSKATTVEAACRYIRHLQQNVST
With GTATGCACGTGCGATG the “relative binding free energy” value was 0.06 kcal/mol. In the case of CGGTTCACGTGATTCG, the “relative binding free energy” value is reported as 0.49 kcal/mol. In the case of AGTAGCACGTGGGTTA, the “relative binding free energy” value is reported as -0.15 kcal/mol. For AGCGGCACGTGGGAGC, the “relative binding free energy” value was -0.12 kcal/mol. In the case of ATCAGCACGTGTTATG, the “relative binding free energy” value is reported as -0.03 kcal/mol. In the case of TCTTGCACGTGATTTG, the “relative binding free energy” value is reported as 0.06 kcal/mol. With ATTGGCACGTGCGTTA the “relative binding free energy” value was -0.2 kcal/mol. For AAGAACACGTGGTGTG, the “relative binding free energy” value was 0.09 kcal/mol. In the case of GTCTTCACGTGATTTG, the “relative binding free energy” value is reported as 0.46 kcal/mol. With GGTCGCACGTGTGGTG the “relative binding free energy” value was -0.03 kcal/mol. With TCTGGCACGTGACGGT the “relative binding free energy” value was 0.05 kcal/mol. In the case of AGGAGCACGTGAGGTC, the “relative binding free energy” value is reported as 0.16 kcal/mol. For GGGTCCACGTGAGTGG, the “relative binding free energy” value was 0.25 kcal/mol. For CTGTTCACGTGGAAGG, the “relative binding free energy” value was 0.3 kcal/mol. For TTGTTCACGTGCAGGG, the “relative binding free energy” value was 0.35 kcal/mol. With GGCAACACGTGGGATG the “relative binding free energy” value was -0.11 kcal/mol. For TTAGACACGTGTTTTT, the “relative binding free energy” value was 0.11 kcal/mol. AGTAGCACGTGGGCGC was tested, and the “relative binding free energy” value was -0.23 kcal/mol. With CATTACACGTGAGTGT the “relative binding free energy” value was 0.2 kcal/mol. TGGCGCACGTGGGGGT was tested, and the “relative binding free energy” value was -0.18 kcal/mol. GTTTTCACGTGAACGG was tested, and the “relative binding free energy” value was 0.34 kcal/mol. For AGGGACACGTGGATAT, the “relative binding free energy” value was 0.11 kcal/mol. CAGGTCACGTGGGGAG was tested, and the “relative binding free energy” value was 0.01 kcal/mol. With CGTTGCACGTGATTGG the “relative binding free energy” value was 0.08 kcal/mol. With AGGGGCACGTGATTTA the “relative binding free energy” value was -0.09 kcal/mol. With TGCGTCACGTGGGCAG the “relative binding free energy” value was -0.17 kcal/mol. With TTTTACACGTGAGGAA the “relative binding free energy” value was 0.3 kcal/mol. GGAGTCACGTGGGTGA was tested, and the “relative binding free energy” value was -0.06 kcal/mol. In the case of TGGGCCACGTGATCTG, the “relative binding free energy” value is reported as 0.17 kcal/mol. TAAAGCACGTGTGTCG was tested, and the “relative binding free energy” value was -0.05 kcal/mol. AGTAGCACGTGGTTGG was tested, and the “relative binding free energy” value was -0.15 kcal/mol. With TTCAGCACGTGCGTTG the “relative binding free energy” value was -0.07 kcal/mol. TTATGCACGTGAGCGG was tested, and the “relative binding free energy” value was 0.25 kcal/mol. With GTGGGCACGTGACTTG the “relative binding free energy” value was 0.06 kcal/mol. ATGTACACGTGCGTTT was tested, and the “relative binding free energy” value was 0 kcal/mol. TTGATCACGTGGGCTA was tested, and the “relative binding free energy” value was 0.01 kcal/mol. With TGGTTCACGTGGGTTG the “relative binding free energy” value was 0.2 kcal/mol. In the case of TAGCGCACGTGGATGG, the “relative binding free energy” value is reported as -0.07 kcal/mol. For TGATACACGTGATTGT, the “relative binding free energy” value was 0.1 kcal/mol. For TTAATCACGTGTGGAG, the “relative binding free energy” value was 0.1 kcal/mol. TATGACACGTGGTGGG was tested, and the “relative binding free energy” value was 0.04 kcal/mol. In the case of GTTTACACGTGTGTGT, the “relative binding free energy” value is reported as 0.21 kcal/mol. For GGTTTCACGTGAAAAG, the “relative binding free energy” value was 0.41 kcal/mol. For GGTAGCACGTGGCAGT, the “relative binding free energy” value was -0.1 kcal/mol. In the case of GAAGGCACGTGGGCAG, the “relative binding free energy” value is reported as -0.22 kcal/mol. For GTCTTCACGTGGGGTT, the “relative binding free energy” value was 0.24 kcal/mol. With CGAAACACGTGGGGGG the “relative binding free energy” value was -0.06 kcal/mol. With TAACTCACGTGGGGTA the “relative binding free energy” value was 0.14 kcal/mol. TATAGCACGTGACGTG was tested, and the “relative binding free energy” value was 0.11 kcal/mol. In the case of GGTAGCACGTGTTAAT, the “relative binding free energy” value is reported as 0.03 kcal/mol. For GAGAGCACGTGGTCGG, the “relative binding free energy” value was -0.13 kcal/mol. With ACGTTCACGTGTGGAG the “relative binding free energy” value was 0.2 kcal/mol. For TATGTCACGTGGCGGT, the “relative binding free energy” value was -0.18 kcal/mol. For AGTTTCACGTGGAGTT, the “relative binding free energy” value was 0.3 kcal/mol. For AGTCGCACGTGGTTGG, the “relative binding free energy” value was -0.11 kcal/mol. In the case of GGTTACACGTGCATGT, the “relative binding free energy” value is reported as 0.1 kcal/mol. AGGGACACGTGGAGCG was tested, and the “relative binding free energy” value was 0.01 kcal/mol. For GTGCGCACGTGTGTAT, the “relative binding free energy” value was -0.15 kcal/mol. For TTAGGCACGTGGACTT, the “relative binding free energy” value was -0.08 kcal/mol. In the case of GGTTGCACGTGTAAGA, the “relative binding free energy” value is reported as 0.2 kcal/mol. In the case of TAGAGCACGTGTCATT, the “relative binding free energy” value is reported as -0.07 kcal/mol. For CTTGACACGTGCTGTT, the “relative binding free energy” value was 0.07 kcal/mol. AGATGCACGTGACGGT was tested, and the “relative binding free energy” value was 0.13 kcal/mol. With GGGGCCACGTGAGAAG the “relative binding free energy” value was 0.09 kcal/mol. In the case of GGGTTCACGTGTTAAA, the “relative binding free energy” value is reported as 0.32 kcal/mol. In the case of TTGTCCACGTGTGTGT, the “relative binding free energy” value is reported as -0.05 kcal/mol. CGTAACACGTGATGGG was tested, and the “relative binding free energy” value was 0.15 kcal/mol. With CCAGGCACGTGTGTGT the “relative binding free energy” value was -0.16 kcal/mol. GGGTACACGTGATGCT was tested, and the “relative binding free energy” value was 0.21 kcal/mol. GGTATCACGTGTATCT was tested, and the “relative binding free energy” value was 0.17 kcal/mol. In the case of CTGCGCACGTGGTTGT, the “relative binding free energy” value is reported as -0.35 kcal/mol. With AGAGTCACGTGGATTA the “relative binding free energy” value was 0.08 kcal/mol. AGATACACGTGGGTTT was tested, and the “relative binding free energy” value was -0.07 kcal/mol. For AGAATCACGTGGGTCG, the “relative binding free energy” value was 0.14 kcal/mol. For TTTGTCACGTGGTGAG, the “relative binding free energy” value was 0.07 kcal/mol. With GAGTGCACGTGAGTGA the “relative binding free energy” value was 0.38 kcal/mol. In the case of TATGTCACGTGATTTT, the “relative binding free energy” value is reported as 0.29 kcal/mol. With CGAAGCACGTGGGTGT the “relative binding free energy” value was -0.25 kcal/mol. With AATGGCACGTGGGTTC the “relative binding free energy” value was -0.12 kcal/mol. TTTTACACGTGACGGC was tested, and the “relative binding free energy” value was 0.36 kcal/mol. CTTGGCACGTGACGGT was tested, and the “relative binding free energy” value was -0.06 kcal/mol. With AAGGGCACGTGAGTCA the “relative binding free energy” value was 0.21 kcal/mol. CTGTTCACGTGTGGCT was tested, and the “relative binding free energy” value was 0.34 kcal/mol. TTTGGCACGTGATGAC was tested, and the “relative binding free energy” value was -0.04 kcal/mol. In the case of GTATTCACGTGTTTGA, the “relative binding free energy” value is reported as 0.33 kcal/mol. In the case of TGCAGCACGTGTAGTT, the “relative binding free energy” value is reported as 0.01 kcal/mol. For GGTTGCACGTGCGTAG, the “relative binding free energy” value was -0.03 kcal/mol. For GTCGACACGTGTAGTT, the “relative binding free energy” value was 0.07 kcal/mol. For CTTAGCACGTGGTCTT, the “relative binding free energy” value was -0.07 kcal/mol. ATGGCCACGTGTTGGC was tested, and the “relative binding free energy” value was -0.03 kcal/mol. GACGTCACGTGGGATT was tested, and the “relative binding free energy” value was 0.13 kcal/mol. With GGTAACACGTGGGTAC the “relative binding free energy” value was -0.09 kcal/mol. In the case of TGGCTCACGTGTGATT, the “relative binding free energy” value is reported as 0.41 kcal/mol. With GGTAGCACGTGTTCGA the “relative binding free energy” value was 0.01 kcal/mol. With TTTACCACGTGGAGTT the “relative binding free energy” value was -0.11 kcal/mol. In the case of ATTTACACGTGGGCGA, the “relative binding free energy” value is reported as 0.05 kcal/mol. GGAAACACGTGTGGAG was tested, and the “relative binding free energy” value was 0.14 kcal/mol. TTGGGCACGTGACGTG was tested, and the “relative binding free energy” value was 0.04 kcal/mol. AACTTCACGTGTGTAG was tested, and the “relative binding free energy” value was 0.33 kcal/mol. GGAATCACGTGTAGAT was tested, and the “relative binding free energy” value was 0.31 kcal/mol. GTCGGCACGTGATTTA was tested, and the “relative binding free energy” value was 0.03 kcal/mol. For CGTAGCACGTGAGGCG, the “relative binding free energy” value was 0.11 kcal/mol. In the case of ATGCACACGTGGCGGG, the “relative binding free energy” value is reported as -0.06 kcal/mol. For GATGACACGTGGTATA, the “relative binding free energy” value was 0.04 kcal/mol. With AGTAACACGTGGGTCA the “relative binding free energy” value was 0.09 kcal/mol. TATTTCACGTGGTCTG was tested, and the “relative binding free energy” value was 0.27 kcal/mol. For GATGGCACGTGGAGCT, the “relative binding free energy” value was -0.13 kcal/mol. ATGGACACGTGAGGAT was tested, and the “relative binding free energy” value was 0.24 kcal/mol. For GTCGTCACGTGGTTCT, the “relative binding free energy” value was 0.15 kcal/mol. With TGGGGCACGTGGAGGG the “relative binding free energy” value was -0.06 kcal/mol. TGGCTCACGTGGGGAG was tested, and the “relative binding free energy” value was 0.19 kcal/mol. With AGAGACACGTGGAGGA the “relative binding free energy” value was -0.02 kcal/mol. ATATGCACGTGTATAA was tested, and the “relative binding free energy” value was -0.07 kcal/mol. For GGTGTCACGTGTTGTT, the “relative binding free energy” value was 0.14 kcal/mol. In the case of CTTTGCACGTGGAGTG, the “relative binding free energy” value is reported as 0.02 kcal/mol.

— the BET-seq Pho4 binding data (Le et al. 2018)
